# Test results taken from paper PMC6919601, “Identification of Plasmodium dipeptidyl aminopeptidase allosteric inhibitors by high throughput screening” (PLoS ONE, 2019).
# The whole screen tested about 110,000 compounds, of which about 230 (0.21%) showed an effect of 50% or more. This is one part of the list.
# Molecular target: DPAP1 (Plasmodium falciparum, UniProt Q8IIJ9)
# Assay: primary screen, percent inhibition; read by cleavage of a fluorogenic dipeptide substrate; higher = more effect of the substance
# Design: species or system P. falciparum D10 trophozoite lysates; single well
# 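Also: 30 min substrate incubation versus DMSO and 10 µM JCP410 controls.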
# DPAP1, sequence (Q8IIJ9 whole entry, looked up): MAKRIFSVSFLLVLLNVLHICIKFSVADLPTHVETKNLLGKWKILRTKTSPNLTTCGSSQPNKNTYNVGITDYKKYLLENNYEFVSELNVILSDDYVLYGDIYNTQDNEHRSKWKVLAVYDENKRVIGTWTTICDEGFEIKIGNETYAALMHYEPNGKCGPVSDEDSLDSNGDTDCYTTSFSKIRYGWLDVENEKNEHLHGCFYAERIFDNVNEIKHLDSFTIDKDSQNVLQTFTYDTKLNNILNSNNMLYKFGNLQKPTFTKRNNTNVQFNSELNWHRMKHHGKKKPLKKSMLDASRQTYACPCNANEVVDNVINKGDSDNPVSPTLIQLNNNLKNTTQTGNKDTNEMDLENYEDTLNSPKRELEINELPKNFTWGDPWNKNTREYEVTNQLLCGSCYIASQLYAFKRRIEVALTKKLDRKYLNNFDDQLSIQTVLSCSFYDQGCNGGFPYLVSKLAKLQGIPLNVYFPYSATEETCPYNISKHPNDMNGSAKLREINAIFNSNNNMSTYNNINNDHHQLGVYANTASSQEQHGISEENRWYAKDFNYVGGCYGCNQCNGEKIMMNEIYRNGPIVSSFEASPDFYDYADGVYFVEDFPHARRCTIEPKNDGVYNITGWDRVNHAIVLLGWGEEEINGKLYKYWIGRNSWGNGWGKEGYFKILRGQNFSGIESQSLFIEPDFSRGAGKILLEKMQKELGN
row,SMILES,% Inhibition @ 10 uM [%]
1,CCCCCCCNc1ccc(NC(=O)c2ccccc2)c2c1C(=O)c1ccccc1C2=O,4.26
2,CCCCc1nc2sc(C(=O)OCC)c(N)c2c2c1COC(C)(C)C2,-3.14
3,CC(=O)Nc1nc(COc2ccc3ccccc3c2)cs1,0.343
4,CCO/C(O)=C1/C(C)=NC2=C(C(=O)CC(C)(C)C2)C1c1ccc(C(=O)OC)cc1 (stereo not drawn),-2.18
5,Cc1ccc(S(=O)(=O)N2CN(Cc3cccnc3)CN=C2N)cc1,3.68
6,Cn1c(=O)c(-c2ccccc2N)nc2ccccc21,8.57
7,O=C(N1CCCC1)N1CCN(S(=O)(=O)c2ccccc2)CC1,-7.32
8,O=C(Nc1ccc(NC(=O)C2CCCC2)cc1)C1CCCC1,-7.09
9,CCc1c(C)sc(NC(=O)c2ccc(Br)o2)c1C(N)=O,2.01
10,O=C(NCc1nc(-c2ccc(Cl)cc2)no1)c1cccs1,2.14
11,CCCCCn1c(=O)c(C(=O)Nc2ccc(Cl)cn2)c(O)c2ccccc21,-2.64
12,Cc1cc(/C=C2\C(=N)N3N=C(S(C)(=O)=O)SC3=NC2=O)c(C)n1-c1ccc(C(C)C)cc1,-3.35
13,N#CC1=C(N)OC2=C(C(=O)CC(c3ccccc3)C2)C1c1ccccc1Cl (stereo not drawn),10.8
14,O=C(Nc1cc(Cl)ccc1Cl)c1cnccn1,1.13
15,COC(=O)c1cn2c(nc3ccccc32)c(C#N)c1O,-4.04
16,N#CCNC(=O)[C@@H]1CCCC[C@@H]1CS(=O)(=O)c1ccc(F)cc1,-3.25
17,CN1C2CCC1/C(=C\c1ccsc1)C(=O)/C2=C\c1ccsc1,-6.4
18,O=C(NC12CC3CC(CC(C3)C1)C2)C1CCN(c2cnccn2)CC1,-1.11
19,CCOc1ccc2c(c1)nc(NCCCO)n2CC,-7.5
20,CCCCCn1c(=O)c(C(=O)Nc2ncccc2O)c(O)c2ccccc21,4
21,Cc1ccc(-c2nc(CS(=O)(=O)CC(=O)NCCc3ccc(Cl)cc3)c(C)o2)cc1,-0.138

row,SMILES,% Inhibition @ 10 uM [%]
1,COc1ccc(NC(=O)Cn2cnc3cc(Cl)ccc3c2=O)c(OC)c1,-5.67
2,O=C(c1ccc2c(c1)ncn2-c1ccc(F)cc1F)N1CCC2(CC1)OCCO2,7.3
3,COc1ccc(Br)cc1CNC(=O)Cn1nc(C)c2sc3ccccc3c2c1=O,-2.96
4,O=C(COc1ccccc1)NCCCCc1ccccc1,-5.82
5,O=C(CCC1CCCCC1)N1CCN(Cc2ccc3c(c2)OCO3)CC1,0.565
6,CC1(C)CC(c2nc(-c3ccc([N+](=O)[O-])cc3)cs2)CCS1 (stereo not drawn),-3.93
7,COc1ccc(OC)c(C2CC(=O)C(C(C)C)C(c3cc(OC)ccc3OC)N2)c1 (stereo not drawn),-3.21
8,O=C(Nc1ccccc1O)c1cccc(S(=O)(=O)Nc2ccc(F)cc2)c1,5.79
9,CSc1nc(-c2ccco2)nn1C(=O)CCc1ccccc1,-2.75
10,Cc1cc(C)c(S(=O)(=O)N2CCC(Cc3ccccc3)CC2)c(C)c1,0.526
11,CCOc1ccccc1C(=O)Nc1ccccc1C(N)=O,9.29
12,COCCNc1nn2nnnc2c2ccccc12,0.802
13,COc1ccc(CNC(=O)c2cc3n(n2)C(C(F)(F)F)CC(c2ccc(OC)cc2)N3)cc1 (stereo not drawn),-0.318
14,O=C(NC1(C(F)(F)F)Oc2ccccc2O1)N1CCc2ccccc2C1,-1.2
15,O=CN1CCN(Cc2cc(Cl)cc(Cl)c2O)CC1,-4.04
16,CC(C)C(=O)NCCc1nc2ccccc2n1CCc1ccccc1,1.64
17,O=C(CNS(=O)(=O)c1ccccc1)Nc1ccc(F)cc1F,-3.95
18,Cc1ccc(C)c(Cn2c(C)c(CNC3CCCC3)c(C(=O)O)c2C)c1,2.8
19,CCOc1ccc(CCNc2nnc3c4ccccc4n(CC)c3n2)cc1,-1.87
20,CSCCC(C(=O)N1CCOCC1)N1C(=O)C2C3c4ccccc4C(c4ccccc43)C2C1=O (stereo not drawn),-0.941
21,CSc1ccc(C2C(C#N)=C(N)Oc3nc(C)nc(O)c32)cc1 (stereo not drawn),-0.446

row,SMILES,% Inhibition @ 10 uM [%]
1,Cc1cc(F)c(F)cc1C(=O)N1CCOCC1,-4.18
2,O=[N+]([O-])c1cc(CN2CCSCC2)ccc1Cl,-0.969
3,N#C/C(=C\c1ccc(Cl)cc1Cl)C(=O)NCC1CCCO1 (stereo not drawn),9.47
4,CCOC(=O)c1c(-c2ccccc2)csc1NC(=O)Cn1nc(C(F)(F)F)c2c1CCC2,7.16
5,CC(C)Cn1cc(NC(=O)NCC2CCN(Cc3cccc(Cl)c3)CC2)c2ccccc2c1=O,-3.83
6,CCOC(=O)C1=C(C)N=c2s/c(=C\c3coc4ccccc4c3=O)c(=O)n2C1c1ccccc1 (stereo not drawn),-9.6
7,O=C(CN1C(=O)c2ccccc2S1(=O)=O)NC1CC2CCC1C2 (stereo not drawn),-0.116
8,O=C1CN=C(c2ccccc2Br)c2cc(Cl)ccc2N1,-3.09
9,CC1(C)CC(=O)C2=C(C1)c1c(ccc3ccccc13)NC2c1cc([N+](=O)[O-])ccc1O (stereo not drawn),-2.18
10,CSc1nccc(N2CCN(c3ccc(F)cc3)CC2)n1,-10.7
11,Cc1ccc(C23CC4CC(CC(O)(C4)C2)C3)cc1N,2.58
12,Cc1ccc(S(=O)(=O)N2CCC(C(=O)Nc3ccccc3C(=O)O)CC2)cc1,0.5
13,Cc1nc2c(-c3ccc(F)cc3)c(C)nn2c(C)c1CCC(=O)NCCc1ccccc1,2.93
14,CC(C)CCNC(=O)c1csc2c1CCC(C)C2 (stereo not drawn),-9.17
15,OC1CCN(C2CCC(c3ccccc3)CC2)CC1 (stereo not drawn),-4.75
16,CC(C)Cc1cc(C(=O)N2CCN(Cc3noc(CCC(=O)N(C)C4CCCCC4)n3)CC2)no1,-4.46
17,COCCN1C(=O)c2[nH]nc(-c3ccccc3O)c2C1c1cccc(Oc2ccccc2)c1 (stereo not drawn),8.13
18,COc1cc(C(=O)n2nc(-c3cccnc3)nc2NCc2ccc(F)cc2)cc(OC)c1OC,-2.92
19,CN1CCN(S(=O)(=O)c2ccc(Cl)cc2)CC1,-3.77
20,CC(C)(C)C(=O)C1C2CCC1C(O)C2 (stereo not drawn),-4.01
21,CC1(C)Cc2ccccc2/C(=C/C(=O)NC2CCCCC2)N1,1.9
